Source: PubChem BioAssay (Tox21)
“And” between values parts separate entries of the source, which are not always exact repeats. Equal values may be shown once. Inconclusive results, whose numbers are uncertain, are shown with a selection of clear calls. For some of these results: Where the call is inconclusive, the potency comes from a doubtful curve fit. The source holds several records for some structures; these can differ, active in one and inactive in another. The source made the active and inactive calls. Unless noted, calls come from the whole dose curve; as a rule, active = well fitted curve in the direction sought with a large enough effect in the repeat runs; inconclusive = weak or mixed curves; inactive = no such curve, though single readings can be large; an effect the other way counts as inactive or inconclusive.

What was measured:
[1] = molecular target: Progesterone receptor (Homo sapiens) (UniProt P06401); assay: qHTS assay to identify small molecule antagonists of the progesterone receptor (PR) signaling pathway (AID 1346795; active = well fitted inhibition curve with a large enough effect in the signal ratio in the repeat runs, not every such curve was filed as active; inconclusive = weak or mixed curves; the % refers to the signal ratio; note: potency is the fitted concentration of half-maximal effect; for activity change, negative = inhibition: % is set by controls: 0 for no effect and ±100 for the full control effect); settings: PR-UAS-bla HEK293T, beta-lactamase FRET ratio, 16 h; activity change, negative = inhibition: at 92.4 µM (top of the series) unless noted
Method in brief: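 PR-UAS-bla HEK293T cells with beta-lactamase reporter under UAS control, in 2% charcoal-stripped FBS, treated with compounds plus 1 nM promegestone (R5020, final) for 16 hr at 37C. Read-out: FRET beta-lactamase substrate fluorescence after 2 hr at room temperature.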

[2] = Caspase-3/7 induction in HepG2 cells by small molecules, qHTS cell viability counter screen (AID 1346981); note: nearly all actives have a fitted effect of over 30% in size; note: potency is the fitted concentration of half-maximal effect; for activity change, negative = cytotoxicity: % is set by controls: 0 for no effect and ±100 for the full control effect
Method in brief: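 Multiplexed with the caspase-3/7 assay: HepG2 cells, 16 hr compound treatment, CellTiter-Fluor viability detection by fluorescence.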

[3] = molecular target: Cytochrome P450 2D6 (Homo sapiens) (UniProt P10635); assay: Cytochrome P450 Family 2 Subfamily D Member 6 (CYP2D6) small molecule antagonists: luciferase reporter qHTS assay (AID 1671196); note: nearly all actives have a fitted effect of over 50% in size; note: potency is the fitted concentration of half-maximal effect; for activity change, negative = inhibition: % is set by controls: 0 for no effect and ±100 for the full control effect
Method in brief: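 Luminescence (RLU), read 20 min after detection reagent, indicated CYP2D6 conversion of proluciferin to luciferin during a 1 h NADPH-dependent reaction at room temperature.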

[4] = molecular target: Nuclear receptor subfamily 1 group I member 2 (Homo sapiens) (UniProt O75469); assay: Human pregnane X receptor (PXR) small molecule agonists, qHTS assay (AID 1346982); note: nearly all actives have a fitted effect of over 35% in size; note: potency is the fitted concentration of half-maximal effect
Method in brief: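 We seeded PXR-Luc HepG2 cells in assay medium containing 5% charcoal-stripped FBS, added compounds 5 hr later, incubated 24 hr, and read luminescence with ONE-Glo reagent.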

[5] = molecular target: Cytochrome P450 2C9 (Homo sapiens) (UniProt P11712); assay: Cytochrome P450 Family 2 Subfamily C Member 9 (CYP2C9) small molecule antagonists: luciferase reporter qHTS assay (AID 1671198); note: nearly all actives have a fitted effect of over 50% in size; note: potency is the fitted concentration of half-maximal effect
Method in brief: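 CYP2C9 activity was measured with a P450-Glo proluciferin substrate. Enzyme–substrate mix was held with compound for 10 min at room temperature, then NADPH regeneration solution was added for 1 h at 37C. Luciferin product was read as luminescence.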

[6] = Caspase-3/7 induction in CHO-K1 cells by small molecules, qHTS cell viability counter screen (AID 1346979); settings: CellTiter-Fluor fluorescence, 17 h; activity change, negative = cytotoxicity: at 92.4 µM (top of the series); note: nearly all actives have a fitted effect of over 35% in size; note: potency is the fitted concentration of half-maximal effect
Method in brief: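 Wild-type CHO-K1 cells (1,500/well) treated with compound after 5 h plating; after 16 h at 37C, viability read as CellTiter-Fluor fluorescence following 1 h reagent incubation, in the same wells as the caspase read.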

[7] = molecular target: Cytochrome P450 2C19 (Homo sapiens) (UniProt P33261); assay: Cytochrome P450 Family 2 Subfamily C Member 19 (CYP2C19) small molecule antagonists: luciferase reporter qHTS assay (AID 1671197); note: nearly all actives have a fitted effect of over 65% in size; note: potency is the fitted concentration of half-maximal effect; for activity change, negative = inhibition: % is set by controls: 0 for no effect and ±100 for the full control effect
Method in brief: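 Luminescent readout of CYP2C19 activity: luciferin product detected 20 min after adding detection reagent. Before that, compound and enzyme-substrate mix preincubated 10 min at room temperature; NADPH-regenerating system started a 1 h, 37C reaction. Ketoconazole as positive control.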

[8] = molecular target: Nuclear receptor subfamily 1 group I member 2 (Rattus norvegicus) (UniProt Q9R1A7); assay: Rat pregnane X receptor (rPXR) activation by small molecules, qHTS assay (AID 1346983); settings: rPXR luciferase reporter cells, One-Glo luminescence, 24 h; max activation: stronger effect = higher value; note: % is set by controls: 0 for no effect and ±100 for the full control effect; nearly all actives have a fitted effect of over 20% in size
Method in brief: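 Cell-based rPXR luciferase reporter assay, 2,000 cells per well, rested 5hr at 37 C before compound addition in DMSO, then 24 hr at 37 C. One-Glo reagent was added and luminescence read after 30 min at room temperature.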

[9] = molecular target: Nuclear receptor subfamily 1 group I member 2 (Homo sapiens) (UniProt O75469); assay: CYP3A4 induction through human pregnane X receptor (PXR) by small molecules, qHTS assay (AID 1346984); note: potency is the fitted concentration of half-maximal effect; nearly all actives have a fitted effect of over 40% in size
Method in brief: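 qHTS, concentration-response format: HepG2 DPX-2 line, PXR/CYP3A4-luc. Exposure 24 h, 37C. Substrate Luciferin-IPA 3uM final, 3 h. Detection One-Glo, 30 min RT.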
Tags give direction and shape of the fitted curve.

UniProt P06401, sequence (P06401 whole entry, looked up): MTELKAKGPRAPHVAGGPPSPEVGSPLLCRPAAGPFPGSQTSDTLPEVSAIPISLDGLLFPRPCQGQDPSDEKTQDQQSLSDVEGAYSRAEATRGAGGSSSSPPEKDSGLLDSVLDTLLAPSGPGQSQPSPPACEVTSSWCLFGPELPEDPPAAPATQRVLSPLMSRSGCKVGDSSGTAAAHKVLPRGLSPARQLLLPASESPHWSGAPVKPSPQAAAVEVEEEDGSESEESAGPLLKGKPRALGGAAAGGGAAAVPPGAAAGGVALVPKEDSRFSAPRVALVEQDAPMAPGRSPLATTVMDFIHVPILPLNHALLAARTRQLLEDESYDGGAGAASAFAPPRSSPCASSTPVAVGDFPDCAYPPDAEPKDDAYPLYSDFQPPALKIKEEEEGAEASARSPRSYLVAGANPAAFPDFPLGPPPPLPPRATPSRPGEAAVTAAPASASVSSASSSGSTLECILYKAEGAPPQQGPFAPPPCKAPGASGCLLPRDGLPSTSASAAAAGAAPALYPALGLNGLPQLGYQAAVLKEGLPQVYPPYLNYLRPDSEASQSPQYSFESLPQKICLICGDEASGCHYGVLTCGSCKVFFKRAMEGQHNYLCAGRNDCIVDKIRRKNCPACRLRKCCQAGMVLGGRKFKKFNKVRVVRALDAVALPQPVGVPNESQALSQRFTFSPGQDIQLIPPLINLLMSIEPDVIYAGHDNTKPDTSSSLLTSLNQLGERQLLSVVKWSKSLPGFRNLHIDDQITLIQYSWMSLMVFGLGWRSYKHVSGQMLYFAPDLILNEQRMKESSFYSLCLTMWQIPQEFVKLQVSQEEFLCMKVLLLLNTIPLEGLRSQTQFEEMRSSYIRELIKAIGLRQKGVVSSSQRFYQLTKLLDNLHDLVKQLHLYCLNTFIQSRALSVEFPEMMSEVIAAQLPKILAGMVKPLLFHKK
UniProt P11712, sequence (P11712 whole entry, looked up): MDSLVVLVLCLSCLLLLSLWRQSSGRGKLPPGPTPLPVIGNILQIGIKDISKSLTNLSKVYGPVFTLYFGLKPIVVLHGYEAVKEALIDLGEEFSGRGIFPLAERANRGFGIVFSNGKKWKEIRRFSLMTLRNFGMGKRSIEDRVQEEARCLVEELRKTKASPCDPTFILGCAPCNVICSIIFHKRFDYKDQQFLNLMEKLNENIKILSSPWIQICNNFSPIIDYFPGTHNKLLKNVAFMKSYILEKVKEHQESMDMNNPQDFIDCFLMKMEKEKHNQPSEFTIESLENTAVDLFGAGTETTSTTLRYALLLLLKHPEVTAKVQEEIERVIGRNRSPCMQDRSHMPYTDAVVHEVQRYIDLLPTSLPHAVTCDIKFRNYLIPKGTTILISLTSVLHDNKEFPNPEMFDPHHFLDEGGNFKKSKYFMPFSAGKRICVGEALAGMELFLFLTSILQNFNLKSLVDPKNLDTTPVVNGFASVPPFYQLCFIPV
UniProt P33261, sequence (P33261 whole entry, looked up): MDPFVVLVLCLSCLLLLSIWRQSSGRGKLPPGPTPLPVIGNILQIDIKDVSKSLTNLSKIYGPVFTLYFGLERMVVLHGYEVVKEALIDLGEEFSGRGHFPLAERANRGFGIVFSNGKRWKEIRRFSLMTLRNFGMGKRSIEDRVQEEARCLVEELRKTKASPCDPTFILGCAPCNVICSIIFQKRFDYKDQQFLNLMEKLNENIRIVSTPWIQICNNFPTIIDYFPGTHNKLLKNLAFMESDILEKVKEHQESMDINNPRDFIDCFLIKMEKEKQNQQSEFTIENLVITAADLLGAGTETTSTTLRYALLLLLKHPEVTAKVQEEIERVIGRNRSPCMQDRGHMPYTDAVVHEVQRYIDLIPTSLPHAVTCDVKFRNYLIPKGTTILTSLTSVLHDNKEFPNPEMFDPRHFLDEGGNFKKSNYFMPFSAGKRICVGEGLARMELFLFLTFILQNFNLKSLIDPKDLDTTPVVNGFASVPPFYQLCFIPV
UniProt P10635, sequence (P10635 whole entry, looked up): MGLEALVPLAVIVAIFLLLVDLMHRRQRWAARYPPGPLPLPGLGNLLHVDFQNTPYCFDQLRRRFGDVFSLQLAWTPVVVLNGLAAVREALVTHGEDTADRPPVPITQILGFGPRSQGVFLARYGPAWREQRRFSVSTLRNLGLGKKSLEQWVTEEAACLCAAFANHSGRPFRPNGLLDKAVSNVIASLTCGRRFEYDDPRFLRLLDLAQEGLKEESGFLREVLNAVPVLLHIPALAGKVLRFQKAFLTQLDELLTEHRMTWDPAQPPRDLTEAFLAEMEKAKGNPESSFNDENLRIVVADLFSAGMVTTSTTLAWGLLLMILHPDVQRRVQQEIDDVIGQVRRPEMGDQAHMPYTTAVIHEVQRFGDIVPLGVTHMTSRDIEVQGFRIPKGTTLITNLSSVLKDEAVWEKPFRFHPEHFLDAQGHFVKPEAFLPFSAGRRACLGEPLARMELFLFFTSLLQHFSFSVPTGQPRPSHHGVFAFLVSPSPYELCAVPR
UniProt Q9R1A7, sequence (Q9R1A7 whole entry, looked up): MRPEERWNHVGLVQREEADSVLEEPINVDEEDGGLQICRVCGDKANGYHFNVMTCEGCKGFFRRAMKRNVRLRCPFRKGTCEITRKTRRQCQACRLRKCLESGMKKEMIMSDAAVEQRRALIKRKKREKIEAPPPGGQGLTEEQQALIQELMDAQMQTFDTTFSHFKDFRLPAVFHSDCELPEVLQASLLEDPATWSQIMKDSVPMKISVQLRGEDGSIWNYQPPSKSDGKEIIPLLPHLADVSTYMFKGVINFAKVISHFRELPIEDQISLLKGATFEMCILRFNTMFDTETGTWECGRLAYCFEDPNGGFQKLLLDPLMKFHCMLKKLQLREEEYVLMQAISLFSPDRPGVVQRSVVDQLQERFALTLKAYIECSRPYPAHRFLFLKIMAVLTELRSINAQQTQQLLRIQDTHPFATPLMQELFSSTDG

For `NC[C@H]1O[C@H](O[C@H]2[C@H](O[C@@H]3O[C@H](CO)[C@@H](O)[C@H]3O)C(O)[C@H](N)C[C@@H]2N)[C@H](N)[C@@H](O)[C@@H]1O` (stereo not given in full), the activity change, negative = inhibition [1] was inactive: 0.98% [at 8.39 µM] and the activity change, negative = cytotoxicity [2] was inactive: 8% [at 8.39 µM].
With `CCOCC(O)COc1ccc(NC(=O)CC[S+](C)C)cc1` (stereo not given) the Potency [1] was “inactive” and the Potency [3] was inconclusive: 43.6 µM [inhibitor, single point].
In the case of `Cc1ccc(NC(=O)N(C)C)cc1NC(=O)N(C)C`, the Potency [1] is reported as “inactive”, the Potency [4] is reported as inconclusive: 34.4 µM [activator, partial curve] and the Potency [5] is reported as inconclusive: 56.4 µM [inhibitor, partial curve].
With `CCCC(=O)OCCc1ccccc1` the activity change, negative = inhibition [1] was inconclusive: 7.98% and the Potency [2] was “inactive”.
For `Cc1ccc(C(C)c2ccc(C)c(C)c2)cc1C`, the Potency [1] was inconclusive: 24.3 µM, the Potency [4] was inconclusive: 61.1 µM [activator, partial curve, poor fit] and the Potency [5] was active: 11.2 µM.
For `Cc1c(C)c([N+](=O)[O-])c(C(C)(C)C)c([N+](=O)[O-])c1C`, the Potency [1] was inconclusive: 34.4 µM [rising, partial curve] and the Potency [4] was inconclusive: 68.6 µM [activator, single point].
For `Cl[Si](Cl)(c1ccccc1)c1ccccc1`, the activity change, negative = inhibition [1] was inconclusive: -26.9%, the Potency [2] was inconclusive: 44.2 µM [rising, partial curve] and the Potency [4] was inconclusive: 31.3 µM [activator, partial curve]. The Potency [3] was inconclusive: 36.4 µM [inhibitor, partial curve] and the Potency [5] was active: 23 µM.
With `CC(=O)OCCC(C)CC(C)(C)C` (stereo not given) the activity change, negative = inhibition [1] was inconclusive: 2.01%, the Potency [6] was inconclusive: 68.6 µM [cytotoxic, single point] and the Potency [3] was active: 71 µM.
For `CCN(CC#N)c1cccc(C)c1`, the Potency [1] was “inactive”, the Potency [4] was inconclusive: 27.3 µM [activator, single point] and the Potency [3] was inconclusive: 50.2 µM [inhibitor, partial curve, poor fit]. The Potency [5] was inconclusive: 39.9 µM [inhibitor, partial curve].
With `O=C(O)Cc1ccc(Cl)cc1Cl` the Potency [1] was “inactive”, the Potency [4] was inconclusive: 27.3 µM [activator, single point] and the Potency [7] was “inactive”.
With `CC(=O)c1ccc(OCC(=O)N2CCCCC2)cc1` the Potency [1] was “inactive”, the Potency [4] was inconclusive: 33.5 µM [activator, single point] and the Potency [3] was “inactive”. For the same compound, the Potency [7] was inconclusive: 43.6 µM [inhibitor, single point].
In the case of `CC(CC=O)c1ccccc1` (stereo not given), the activity change, negative = inhibition [1] is reported as inconclusive: -25.9%, the Potency [6] is reported as “inactive” and the Potency [5] is reported as active: 31.7 µM.
For `CC1(C)[C@@H]2CC[C@@]1(C)[C@H](O)C2`, the Potency [1] was “inactive”, the Potency [2] was “inactive” and the Potency [3] was “inactive”.
In the case of `CC/C(C)=N\O[Si](C)(O/N=C(\C)CC)O/N=C(\C)CC`, the activity change, negative = inhibition [1] is reported as inconclusive: 5.56%, the Potency [2] is reported as inconclusive: 69.5 µM [rising, partial curve, poor fit] and the Potency [5] is reported as inconclusive: 50.9 µM [inhibitor, partial curve].
For `CC(c1cc(C(C)(C)C)cc(C(C)(C)C)c1O)c1cc(C(C)(C)C)cc(C(C)(C)C)c1O`, the Potency [1] was “inactive”, the Potency [6] was inconclusive: 68.6 µM [cytotoxic, single point] and the Potency [5] was inconclusive: 17.8 µM [inhibitor, full curve].
In the case of `CC(C)COC(=O)COc1cc(Cl)c(Cl)cc1Cl`, the Potency [1] is reported as “inactive” and the Potency [4] is reported as inconclusive: 68.4 µM [activator, single point].
In the case of `BrCCOc1ccccc1`, the Potency [1] is reported as “inactive” and the Potency [2] is reported as “inactive”.
With `CCC(C)C=O` (stereo not given) the activity change, negative = inhibition [1] was inconclusive: -34.4%, the Potency [2] was “inactive” and the Potency [7] was active: 39.9 µM and inactive.
For `CC(C)C(=O)c1c(C(C)C)nn2ccccc12`, the activity change, negative = inhibition [1] was inconclusive: -32.7% [at 42.5 µM] and the Potency [2] was inconclusive: 18.8 µM [rising, partial curve].
In the case of `CCOCCOCCOC(C)=O`, the Potency [1] is reported as “inactive” and the Potency [4] is reported as “inactive”.
With `CN(C)C=O` the Potency [1] was “inactive”, the Potency [6] was “inactive” and the Potency [4] was “inactive”. For the same compound, the Potency [7] was inconclusive: 91.4 µM [inhibitor, single point] and the Potency [5] was “inactive”.
For `CC(C=O)Cc1ccc(C(C)C)cc1` (stereo not given), the Potency [1] was “inactive”, the Potency [2] was “inactive” and the Potency [5] was inconclusive: 39.9 µM [inhibitor].
With `IC(I)I` the activity change, negative = inhibition [1] was inconclusive: 8.1%, the Potency [4] was “inactive” and the max activation [8] was inactive: -1.04%. The Potency [9] was inconclusive: 8.91 µM [activator, full curve, poor fit], the Potency [3] was inconclusive: 35.5 µM [inhibitor, partial curve] and inconclusive: 63.3 µM [inhibitor, partial curve] and the Potency [5] was active: 35.5 µM and active: 63.3 µM.
